Results published in article PMC7819943, “Rice protein-binding microarrays: a tool to detect cis-acting elements near promoter regions in rice”.
The other results are listed elsewhere or left out.

Target: T1, OsWOX13 (Oryza sativa, UniProt Q5QMM3 1-267)
T1 sequence: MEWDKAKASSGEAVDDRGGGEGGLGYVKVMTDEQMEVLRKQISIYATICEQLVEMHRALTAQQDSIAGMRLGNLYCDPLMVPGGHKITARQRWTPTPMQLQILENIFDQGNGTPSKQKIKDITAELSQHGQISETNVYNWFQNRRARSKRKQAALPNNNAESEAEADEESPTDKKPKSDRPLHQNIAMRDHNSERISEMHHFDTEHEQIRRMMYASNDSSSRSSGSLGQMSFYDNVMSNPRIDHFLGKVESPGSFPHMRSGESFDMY
Assay: protein-binding microarray (RPBM); PBS, 2% BSA, 51.3 ng/ul salmon testes DNA, 50 uM zinc acetate, 200 nM TF, 25 C, 1 h; high values mean tight binding
Conditions: protein: recombinant; tags: N-terminal polyhistidine and DsRed monomer fusion (pET32a); label: CyDye5-dUTP incorporated in the synthesized complementary strand; 3' TTTTT single-stranded linker to array surface; dsDNA, one strand shown
How it was run: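 For the binding signal, per-feature fluorescence intensity was read in arbitrary units on an Axon 4000B scanner. Before scanning, a 2% BSA-blocked custom Agilent array made double-stranded with Cy5-dUTP was washed after 1 h at 25 °C with 200 nM protein and 50 µM zinc acetate. The proteins were Ni–NTA-purified transcription factors with N-terminal polyhistidine and DsRed fusions, expressed in E. coli BL21-CodonPlus.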

Sequence	binding signal
AGGCAATTAACTATGACCACTTCTTCAATAAATTATTACTCGGAGTCACCTAGTGCAG	8960 fluorescence intensity (a.u.)
TATGTGATTATCTTCTCCATACCATCATGTTCTAGATACGCGGAGTCACCTAGTGCAG	24900 fluorescence intensity (a.u.)
TGTGAGATTGAGGACGAATTGAAGCCTAGCTTGTGACGCACGGAGTCACCTAGTGCAG	17800 fluorescence intensity (a.u.)
CATGATGAATTGCTGCGTATTGCCTTGCTAATGCCTGGTTCGGAGTCACCTAGTGCAG	14900 fluorescence intensity (a.u.)
ACTTAACGTGATGGAATGGCATCCATAATATTCGTCCACCCGGAGTCACCTAGTGCAG	16500 fluorescence intensity (a.u.)
CGCTCCCGTCTCCGATAATCAATGGCTGATCAGCCTCCGCCGGAGTCACCTAGTGCAG	3480 fluorescence intensity (a.u.)
TGCAAATTTAGGCTGATACTGTCTAATATGCTATGCATTTCGGAGTCACCTAGTGCAG	4200 fluorescence intensity (a.u.)
TGTTAACTCTTCAATCTGTATCACAGCATGTCATCTTCGGCGGAGTCACCTAGTGCAG	9370 fluorescence intensity (a.u.)
GCATGATTACCCTTAGACTTCCTTTCCTATTATATAAAGCCGGAGTCACCTAGTGCAG	24200 fluorescence intensity (a.u.)
GTAAATTGCCATCAGAAACAAGTATTTCAGACGCAATACGCGGAGTCACCTAGTGCAG	17300 fluorescence intensity (a.u.)
ATCATATAATGATCAATCTGTGAAGAAGGAAGTACAATCCCGGAGTCACCTAGTGCAG	6930 fluorescence intensity (a.u.)
ATAAGGCTATTGACTTGATTGATGAAGCAGGATCTCGTGTCGGAGTCACCTAGTGCAG	30100 fluorescence intensity (a.u.)
ATAGAAATCAATCTTGATTTGTTGTATGCATGTGGGGCATCGGAGTCACCTAGTGCAG	32600 fluorescence intensity (a.u.)
AACCAAAATGGGGAATCAATCAAGCAGCTGTTTGCTAGCTCGGAGTCACCTAGTGCAG	15100 fluorescence intensity (a.u.)
AAAACCAATGATAATCATGTATGATTTTAAAATCTCAATGCGGAGTCACCTAGTGCAG	10900 fluorescence intensity (a.u.)
CTGATCCTTCTTAATCCAATCACTGGCGAACAGATTGCATCGGAGTCACCTAGTGCAG	9250 fluorescence intensity (a.u.)
TCAGCTAATCAGCTAACTGGTCCTTTTCCTACTTCCCTTGCGGAGTCACCTAGTGCAG	8010 fluorescence intensity (a.u.)
ATGAATTGATGAAAGCTTCAGTGCAGTTGATTCCCAAGTACGGAGTCACCTAGTGCAG	14600 fluorescence intensity (a.u.)
GTAGATAGATGGCACATTGGCAGTGATGGCTGTGTACAGTCGGAGTCACCTAGTGCAG	8260 fluorescence intensity (a.u.)
GTGATGAATTAATGACAAAGTCTCCCTTGGCGGCAAGCCACGGAGTCACCTAGTGCAG	10200 fluorescence intensity (a.u.)
GTGATGGACAAATTGCTAGTCACAAAGTATAGCAAAGTTACGGAGTCACCTAGTGCAG	9420 fluorescence intensity (a.u.)
CATGACATACAATTTATCAGATCCAATTTTAGGATTATTCCGGAGTCACCTAGTGCAG	10900 fluorescence intensity (a.u.)
GGAAGACAATTTTACCATAATTTGGGTGGAGGGGTGTTGGCGGAGTCACCTAGTGCAG	3660 fluorescence intensity (a.u.)
AAATTTATGTAATTATAATTTATTTTATTATGACTTGATTCGGAGTCACCTAGTGCAG	24300 fluorescence intensity (a.u.)
TCAACAAATGCACAATCAACAACAAACAGTTCTTGCAATTCGGAGTCACCTAGTGCAG	4050 fluorescence intensity (a.u.)
GCACCTGATTGGTCCGTCGCGTGCTCCCACGGATCGCCCCCGGAGTCACCTAGTGCAG	6790 fluorescence intensity (a.u.)
CCCTGATTTCTCCCAAACCAAAACCAACCAAACCTCGCGGCGGAGTCACCTAGTGCAG	17200 fluorescence intensity (a.u.)

Sequence	binding signal
GCGAAACAATTCTGATTTACTTGATTTAACATGCAACATTCGGAGTCACCTAGTGCAG	14800 fluorescence intensity (a.u.)
TTAAAATTCAATCAATCATATGTTAATACCACATAATTTTCGGAGTCACCTAGTGCAG	10400 fluorescence intensity (a.u.)
AATTAAGATTGGTATTCTTATGCTTACCATGTTATCTTTTCGGAGTCACCTAGTGCAG	6720 fluorescence intensity (a.u.)
CGAAATTGAAGCGCGTATGACCAAAGTTTGCTACTCGTGCCGGAGTCACCTAGTGCAG	31000 fluorescence intensity (a.u.)
CCCATTGCCTTCCTTCTTGCCCAATTCACTCCACCATACTCGGAGTCACCTAGTGCAG	4870 fluorescence intensity (a.u.)
TGGATCCTGATTGGATCCTGATTGGCGTTGCGGCCGTGTCCGGAGTCACCTAGTGCAG	65000 fluorescence intensity (a.u.)
GACTTATAATTAGTCTAAACAACAAAGCCCTAAGCAGTAACGGAGTCACCTAGTGCAG	7840 fluorescence intensity (a.u.)
ACAACCCATTCATATGATCAATTGATCATGTTATTACAAGCGGAGTCACCTAGTGCAG	3830 fluorescence intensity (a.u.)
AACTTAATTTTGACATTGATTTTGAGATATTTTCAATGTACGGAGTCACCTAGTGCAG	27200 fluorescence intensity (a.u.)
TGCAAAATTTCTATGATTGCTAACCTATCCTGCTGGATTTCGGAGTCACCTAGTGCAG	28900 fluorescence intensity (a.u.)
TGTCACAAATCTAATGGTATAATTAGTTCATAGTTCGGATCGGAGTCACCTAGTGCAG	8340 fluorescence intensity (a.u.)
GAAAATTATTTTCCTATCCCATTATCCAAACAATGCCTAACGGAGTCACCTAGTGCAG	5700 fluorescence intensity (a.u.)
ATCAGGGCCTTAATTAACTCCAAACCTGATAGAGTGGCAGCGGAGTCACCTAGTGCAG	6480 fluorescence intensity (a.u.)
TCGCAGATAATTATGGCCCCGTTAATATGGGGAATAGGTCCGGAGTCACCTAGTGCAG	14800 fluorescence intensity (a.u.)
TTTCAAATTAAATTTTGGCAGCGGCTTAATTATAAGCTAGCGGAGTCACCTAGTGCAG	12600 fluorescence intensity (a.u.)
GCTTAATTGATTAATTTGCTGGACGAGGAATCTTCTATGTCGGAGTCACCTAGTGCAG	64600 fluorescence intensity (a.u.)
TAGTGTAATTTAACACTTAATTAGCCACATTTGTTACACACGGAGTCACCTAGTGCAG	61900 fluorescence intensity (a.u.)
GCATCTACTCTGTGCCAATCACCGGGCATATATACATGGTCGGAGTCACCTAGTGCAG	5930 fluorescence intensity (a.u.)
ATTGCAAATTGGACACTAGAGAATGTGGTACCAATTCGGGCGGAGTCACCTAGTGCAG	11800 fluorescence intensity (a.u.)
TTTCCAATCTATTGCTATACTAGTATGACAACTCAATCTCCGGAGTCACCTAGTGCAG	6860 fluorescence intensity (a.u.)
TGAGCTATTAGATTGGTTATAGATGAATTGAAGTTAGTAGCGGAGTCACCTAGTGCAG	14100 fluorescence intensity (a.u.)
AATACTAGTAATTAAGTTAACTCCGTTCCTGTCATACCAACGGAGTCACCTAGTGCAG	11100 fluorescence intensity (a.u.)
GCTCTAATTGGCTATCTGTACATCTGTTTGTTATTCTAATCGGAGTCACCTAGTGCAG	37100 fluorescence intensity (a.u.)
AAAATCACTGATAGATATGTGATTTTCGTTTTGAGGGTCTCGGAGTCACCTAGTGCAG	40900 fluorescence intensity (a.u.)
AGTTAATAACAAGAAATTATTCATTTAAATTTAGGGCAAACGGAGTCACCTAGTGCAG	9460 fluorescence intensity (a.u.)
GCAAATAACTGAATGAACGTTTATCTCATTCCGGCACGCACGGAGTCACCTAGTGCAG	8180 fluorescence intensity (a.u.)
CGTCCCTAAATTGGACAAAATTACACTGAACTACGCAGATCGGAGTCACCTAGTGCAG	7270 fluorescence intensity (a.u.)
